This is one part of the list.

One assay has as its target T1, LXRa (Homo sapiens) (UniProt Q13133).
T1 sequence: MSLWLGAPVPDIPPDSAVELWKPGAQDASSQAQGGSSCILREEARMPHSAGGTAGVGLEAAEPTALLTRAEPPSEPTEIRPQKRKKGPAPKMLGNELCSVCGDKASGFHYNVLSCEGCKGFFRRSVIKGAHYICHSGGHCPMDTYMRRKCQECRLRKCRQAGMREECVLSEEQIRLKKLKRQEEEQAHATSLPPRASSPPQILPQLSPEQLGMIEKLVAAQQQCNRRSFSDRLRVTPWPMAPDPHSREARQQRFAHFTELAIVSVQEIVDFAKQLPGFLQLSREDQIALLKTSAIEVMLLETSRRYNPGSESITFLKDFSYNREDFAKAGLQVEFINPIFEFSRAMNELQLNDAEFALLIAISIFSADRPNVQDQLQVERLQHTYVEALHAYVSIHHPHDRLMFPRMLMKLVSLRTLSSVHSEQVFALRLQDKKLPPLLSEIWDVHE
To be noted: 270 nM, no RXRa, PBS pH 7.4, 2% milk, 0.02% Triton X-100, 1 mM DTT, BSA, 0.4 mg/ml salmon testes DNA; double strand, one strand shown.
As for “GCACTTAGAGCCCAGGAGCTTGAGGTCGCAGCTACTGCGATTGACAGCGTAGAATGAAGG”, the binding signal (PBM z-score against 500 random probes) was -0.52.
Same read-out and setting: the figure for “GCGAGCCACCACGCCTGGCCTCTCCGATCTCCAACTGCGATTGACAGCGTAGAATGAAGG” is 0.03; for “GCTGGCAATGGCTGGACCACTCCAAGAACTGTGTGGGCGATTGACAGCGTAGAATGAAGG” it is -0.77; for “GCAGGTAATGTATTCACAGGTTCTGGGACGTCATTGGCGATTGACAGCGTAGAATGAAGG” it is -0.15.
Same read-out and setting: the figure for “GCTGTTCTTACTGAGGCGTTTGCTGCCTAGCTCCCTGCGATTGACAGCGTAGAATGAAGG” is -0.24.
The same measure, in the same setting: the figure for “GCCAAGATGAATCAGAAGCATGCCATCCGAATTCCAGCGATTGACAGCGTAGAATGAAGG” is -0.2.
With “GCGCTACTTGGGAGGCTGAGATGGTAGAATCACTTGGCGATTGACAGCGTAGAATGAAGG”, the binding signal (PBM z-score against 500 random probes) was -0.61.
On the same count and under the same terms, the figure for “GCGCCTGTGACTTAGAATGCCCTACCTCCTGGGAATGCGATTGACAGCGTAGAATGAAGG” is 0.1.
On the same count and under the same terms, the figure for “GCGTTGATGAATCATGACCCACACTCAACCACCAGCGCGATTGACAGCGTAGAATGAAGG” is 0.38; for “GCAGCGCACCAGCATGGCACATGTATACATATGTAAGCGATTGACAGCGTAGAATGAAGG” it is -0.57; for “GCCACATCTGTAATCCCAGCACTTTGGGAGGCCAAGGCGATTGACAGCGTAGAATGAAGG” it is 0.5.
Same read-out and setting: the figure for “GCGTGCGAGGGAAGGAGCATGCTTCATTGATCCCATGCGATTGACAGCGTAGAATGAAGG” is -0.82.
“GCATTGAGCAGGTGTTGATTACAAATGAGATGTTTCGCGATTGACAGCGTAGAATGAAGG” had a binding signal (PBM z-score against 500 random probes) of 0.29.
Same read-out and setting: the same measure for “GCGAAGAAGAAGAAGAAGGAGGAGGAGGAGGAGGAGGCGATTGACAGCGTAGAATGAAGG”: 0.21.
Still for that read-out and setting: the same measure for “GCTCCCTGCCCAGTTCTGTGCAGGGTGTGCGTGTCTGCGATTGACAGCGTAGAATGAAGG”: -0.94; for “GCGGTACTCAGTATGTGAAGAATCATGTTGAGGCAGGCGATTGACAGCGTAGAATGAAGG”: -0.1.
Still for that read-out and setting: the same measure for “GCTTACTCTGTTGCACTTTGGAAGAAACAAATGTAAGCGATTGACAGCGTAGAATGAAGG”: -0.03.
Regarding “GCTGTGCCTTCTGCACAAGGTAGGTCTACATCCACTGCGATTGACAGCGTAGAATGAAGG”, the binding signal (PBM z-score against 500 random probes) is -0.39.
On the same count and under the same terms, the same measure for “GCGCCCAGTAGTTTGAGACCAGCCTGGACAACATGGGCGATTGACAGCGTAGAATGAAGG”: -0.48.
On the same count and under the same terms, the same measure for “GCTCTCTGGTACCAGTGAAGAAGACGTCCAGGTGGCGCGATTGACAGCGTAGAATGAAGG”: -0.69; for “GCTGGGCACATGAGGGATGGGAGTTGATCTCTGTGGGCGATTGACAGCGTAGAATGAAGG”: -0.29; for “GCGCCTCTGGAATGTAAACTCCAGCCTGGCATGTATGCGATTGACAGCGTAGAATGAAGG”: -0.43.
The sequence “GCAACAGGCAGCTGGCTGTGCACGGCAACCATGGGCGCGATTGACAGCGTAGAATGAAGG” showed a binding signal (PBM z-score against 500 random probes) of -1.21.
“GCAAGCCAGGACTGGACTTCGGACCACCAGTTCCAAGCGATTGACAGCGTAGAATGAAGG” had a binding signal (PBM z-score against 500 random probes) of -0.65.
The same measure, in the same setting: the same measure for “GCGAGGACAGAGTAGATCAACCTTTCCTACCTCTAAGCGATTGACAGCGTAGAATGAAGG”: -0.34.

The next assay concerns the target T2, LXRb (Homo sapiens) (UniProt P55055).
T2 sequence: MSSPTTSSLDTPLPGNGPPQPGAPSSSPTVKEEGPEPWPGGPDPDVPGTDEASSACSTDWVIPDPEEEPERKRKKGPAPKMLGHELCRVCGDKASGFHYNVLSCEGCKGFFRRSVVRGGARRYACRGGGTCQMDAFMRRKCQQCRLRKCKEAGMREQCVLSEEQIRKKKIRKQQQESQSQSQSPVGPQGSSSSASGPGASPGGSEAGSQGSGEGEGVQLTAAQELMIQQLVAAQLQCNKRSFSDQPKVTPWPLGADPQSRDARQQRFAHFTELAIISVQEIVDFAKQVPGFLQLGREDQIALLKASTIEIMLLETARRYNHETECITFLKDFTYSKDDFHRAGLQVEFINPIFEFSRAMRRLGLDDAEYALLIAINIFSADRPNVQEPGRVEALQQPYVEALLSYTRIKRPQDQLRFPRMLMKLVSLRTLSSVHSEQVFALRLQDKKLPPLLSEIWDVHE
To be noted: 270 nM, no RXRa, PBS pH 7.4, 2% milk, 0.02% Triton X-100, 1 mM DTT, BSA, 0.4 mg/ml salmon testes DNA; double strand, one strand shown.
With “GCCCGAGTAGGTTACGAGGGGGGATTCAGTGCGAATGCGATTGACAGCGTAGAATGAAGG”, the binding signal (PBM z-score against 500 random probes) was determined as 11.9.
Still for that read-out and setting: the same measure for “GCCCAATGCAAGGGCAGCAAGGGCAGGACCAGTGCAGCGATTGACAGCGTAGAATGAAGG”: -1; for “GCCACCGTGTTAGCCAGGATGGTCTCGATCTCCTGAGCGATTGACAGCGTAGAATGAAGG”: -0.65.
The same measure, in the same setting: the same measure for “GCTCGTGTAGGTTACGGGGGCATTCAGGGATGAAGAGCGATTGACAGCGTAGAATGAAGG”: 12.7.
Still for that read-out and setting: the same measure for “GCGAGGTTGCAGTGAGCCAAGATTGCACCACTGCACGCGATTGACAGCGTAGAATGAAGG”: -1.36; for “GCTGGAATCCTAGTGCTTTGGGAGGCTGAGGCTGGAGCGATTGACAGCGTAGAATGAAGG”: -0.73; for “GCCCCAGATGACGGGTTGATATGGGCAGCAAACCGCGCGATTGACAGCGTAGAATGAAGG”: -0.86.
Sequence “GCGAAGGAAGGAAGGAAGGAAGGAAGGAAGGAAGGCGCGATTGACAGCGTAGAATGAAGG” showed a binding signal (PBM z-score against 500 random probes) of -0.35.
The sequence “GCTTTCAAGGCAGTAAGAGTTTGCTGTGCATCAGCTGCGATTGACAGCGTAGAATGAAGG” came in with a binding signal (PBM z-score against 500 random probes) of -0.92.
On the same count and under the same terms, the figure for “GCCTATGTGGGTTAAGGGGGTCATTCAGTTTGAAAGGCGATTGACAGCGTAGAATGAAGG” is 10.4; for “GCGGTGGCACACGCATGGAATCCCAGCGCTTTGGGAGCGATTGACAGCGTAGAATGAAGG” it is -1.24.
The sequence “GCTAGCTGAGACTACATGCCACCATGCCTGGCTAATGCGATTGACAGCGTAGAATGAAGG” yielded a binding signal (PBM z-score against 500 random probes) of -0.18.
Same read-out and setting: the same measure for “GCATGAGCTGAGATCACAACACTGCACTCCATCCTGGCGATTGACAGCGTAGAATGAAGG”: -0.23; for “GCCTATGTAGGTTAGGGGGGTCATTCAGTTTGAAAGGCGATTGACAGCGTAGAATGAAGG”: 14.1.

In another assay the target is PPARg (Homo sapiens) (UniProt P37231). As to conditions: 180 nM, no RXRa, PBS pH 7.4, 2% milk, 0.02% Triton X-100, 1 mM DTT, BSA, 0.4 mg/ml salmon testes DNA; double strand, one strand shown.
Sequence of UniProt P37231 (P37231 29-505): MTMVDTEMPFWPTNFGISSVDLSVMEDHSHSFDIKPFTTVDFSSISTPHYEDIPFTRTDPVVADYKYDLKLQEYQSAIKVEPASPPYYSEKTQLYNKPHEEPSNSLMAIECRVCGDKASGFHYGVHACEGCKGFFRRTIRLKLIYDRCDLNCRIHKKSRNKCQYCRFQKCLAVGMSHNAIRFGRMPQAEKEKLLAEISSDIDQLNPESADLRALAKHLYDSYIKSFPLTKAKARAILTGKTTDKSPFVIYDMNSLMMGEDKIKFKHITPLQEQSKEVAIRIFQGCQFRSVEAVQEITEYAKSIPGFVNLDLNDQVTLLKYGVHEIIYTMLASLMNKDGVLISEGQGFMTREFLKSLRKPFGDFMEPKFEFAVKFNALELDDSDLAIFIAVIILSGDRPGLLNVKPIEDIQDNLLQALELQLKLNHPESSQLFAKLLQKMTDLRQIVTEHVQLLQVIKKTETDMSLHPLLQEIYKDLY
Turning to “GCACTTAGAGCCCAGGAGCTTGAGGTCGCAGCTACTGCGATTGACAGCGTAGAATGAAGG”, the binding signal (PBM z-score against 500 random probes) was -0.7.
“GCGAGCCACCACGCCTGGCCTCTCCGATCTCCAACTGCGATTGACAGCGTAGAATGAAGG” came in with a binding signal (PBM z-score against 500 random probes) of -0.22.
Same read-out and setting: the figure for “GCCAAGATGAATCAGAAGCATGCCATCCGAATTCCAGCGATTGACAGCGTAGAATGAAGG” is -0.47.
On to “GCAACAGGCAGCTGGCTGTGCACGGCAACCATGGGCGCGATTGACAGCGTAGAATGAAGG”, for which the binding signal (PBM z-score against 500 random probes) was -1.44.
